Laboratory results: the supplement of paper PMC4604168 (melanoma cell lines)
This is one part of the list. Most values come without repeats; read them as rough.

Assays:
Assay in all cases: cell count relative to DMSO control; melanoma cells; higher = more viable cells
Conditions in all cases: library dose: standard library concentration; 72 h
A101D = system: A101D
A2058 = system: A2058
A375 = system: A375
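Also: cells treated in 1,536-well plates, then fixed and DAPI-stained, with nuclei counted from automated high-throughput microscope images.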

Structure (SMILES) | cell count (A101D) | cell count (A2058) | cell count (A375)
NC(=O)c1ccc(N(C(N)=O)c2c(F)cccc2F)nc1-c1ccc(F)cc1F + CCN(CC)CCNC(=O)c1c(C)[nH]c(/C=C2\C(=O)Nc3ccc(F)cc32)c1C [sunitinib] (first compound 2 µM, partner dose 2 µM) | 67.9% | 68.1% | 89.7%
CCCCCCCCc1ccc(CCC(N)(CO)CO)cc1 [fingolimod] + Cn1c(=O)n(-c2ccc(C(C)(C)C#N)cc2)c2c3cc(-c4cnc5ccccc5c4)ccc3ncc21 [NVP-BEZ235] (first compound 10 µM, partner dose 0.02 µM) | 4.58% | 7.31% | 60.2%
CCCCCCCCc1ccc(CCC(N)(CO)CO)cc1 [fingolimod] + CN(NC(=O)CC(=O)NN(C)C(=S)c1ccccc1)C(=S)c1ccccc1 [STA4783] (first compound 10 µM, partner dose 0.03 µM) | 3.04% | 4.61% | 15.3%
Cc1ccc(NC(=O)c2cccc(N(C)C)c2)cc1NC(=O)c1ccc(O)cc1 + O=C(O)c1ccc(-c2c[nH]c3ncc(-c4ccccc4)cc23)cc1C1CCCC1 [GSK650394] (first compound 10 µM, partner dose 0.8 µM) | 80.8% | 80% | 96.1%
NC(=O)c1ccc(N(C(N)=O)c2c(F)cccc2F)nc1-c1ccc(F)cc1F + C=C(c1ccc(C(=O)O)cc1)c1cc2c(cc1C)C(C)(C)CCC2(C)C [Bexarotene] (first compound 2 µM, partner dose 10 µM) | 115% | 103% | 95.7%
CCCCCCCCc1ccc(CCC(N)(CO)CO)cc1 [fingolimod] + CC(=O)c1c(C)c2cnc(Nc3ccc(N4CCNCC4)cn3)nc2n(C2CCCC2)c1=O [palbociclib] (first compound 10 µM, partner dose 0.2 µM) | 8.76% | 53.4% | 64.4%
CCCCCCCCc1ccc(CCC(N)(CO)CO)cc1 [fingolimod] + CO[C@@H]1[C@H](N(C)C(=O)c2ccccc2)C[C@H]2O[C@]1(C)n1c3ccccc3c3c4c(c5c6ccccc6n2c5c31)C(=O)NC4 [Midostaurin] (first compound 10 µM, partner dose 0.4 µM) | 3.07% | 3.05% | 41.1%
NC(=O)c1ccc(N(C(N)=O)c2c(F)cccc2F)nc1-c1ccc(F)cc1F + O=C(CCCCCCC(=O)Nc1ccccc1)NO [vorinostat] (first compound 2 µM, partner dose 0.4 µM) | 86.8% | 86% | 146%
NC(=O)c1ccc(N(C(N)=O)c2c(F)cccc2F)nc1-c1ccc(F)cc1F + C[C@@H](Oc1cc(-c2cnn(C3CCNCC3)c2)cnc1N)c1c(Cl)ccc(F)c1Cl [Crizotinib] (first compound 2 µM, partner dose 1 µM) | 89.8% | 95.2% | 111%
NC(=O)c1ccc(N(C(N)=O)c2c(F)cccc2F)nc1-c1ccc(F)cc1F + Cn1c(Nc2ccc(C(F)(F)F)cc2)nc2cc(Oc3ccnc(-c4ncc(C(F)(F)F)[nH]4)c3)ccc21 [CHIR265] (first compound 2 µM, partner dose 0.4 µM) | 61% | 73.4% | 95.4%
NC(=O)c1ccc(N(C(N)=O)c2c(F)cccc2F)nc1-c1ccc(F)cc1F + CNC(=O)c1cc(Oc2ccc(NC(=O)Nc3ccc(Cl)c(C(F)(F)F)c3)cc2)ccn1 [sorafenib] (first compound 2 µM, partner dose 2 µM) | 93.7% | 123% | 88.4%
CCCCCCCCc1ccc(CCC(N)(CO)CO)cc1 [fingolimod] + NC(=O)Nc1cc(-c2cccc(F)c2)sc1C(=O)N[C@H]1CCCNC1 [AZD7762] (first compound 10 µM, partner dose 0.1 µM) | 5.27% | 3.43% | 18.7%
Cc1ccc(NC(=O)c2cccc(N(C)C)c2)cc1NC(=O)c1ccc(O)cc1 + COc1cc2c(Oc3ccc4[nH]c(C)cc4c3F)ncnc2cc1OCCCN1CCCC1 [cediranib] (first compound 10 µM, partner dose 2 µM) | 109% | 123% | 102%
CCCCCCCCc1ccc(CCC(N)(CO)CO)cc1 [fingolimod] + CN(c1ncccc1CNc1nc(Nc2ccc3c(c2)CC(=O)N3)ncc1C(F)(F)F)S(C)(=O)=O [PF562271] (first compound 10 µM, partner dose 0.4 µM) | 5.42% | 3.59% | 60.5%
CC(C)(C)c1cnc(CSc2cnc(NC(=O)C3CCNCC3)s2)o1 + NCC(=O)Nc1ccc(-n2nc(C(F)(F)F)cc2-c2ccc3c(ccc4ccccc43)c2)cc1 [OSU03012] (first compound 0.05 µM, partner dose 5 µM) | 69.1% | 70% | 69%
CC(C)(C)c1cnc(CSc2cnc(NC(=O)C3CCNCC3)s2)o1 + CN(C)S(=O)(=O)c1ccc2c(c1)/C(=C/c1cc3c([nH]1)CCCC3)C(=O)N2 [SU6656] (first compound 0.05 µM, partner dose 2 µM) | 67% | 77.2% | 126%
NC(=O)c1ccc(N(C(N)=O)c2c(F)cccc2F)nc1-c1ccc(F)cc1F + CC(C)(C)c1cnc(CSc2cnc(NC(=O)C3CCNCC3)s2)o1 [SNS-032] (first compound 2 µM, partner dose 0.05 µM) | 77.2% | 97.5% | 83.5%
Cc1ccc(NC(=O)c2cccc(N(C)C)c2)cc1NC(=O)c1ccc(O)cc1 + NCC(=O)Nc1ccc(-n2nc(C(F)(F)F)cc2-c2ccc3c(ccc4ccccc43)c2)cc1 [OSU03012] (first compound 10 µM, partner dose 5 µM) | 82.7% | 93.2% | 37.7%
CCCCCCCCc1ccc(CCC(N)(CO)CO)cc1 [fingolimod] + C=C(c1ccc(C(=O)O)cc1)c1cc2c(cc1C)C(C)(C)CCC2(C)C [Bexarotene] (first compound 10 µM, partner dose 10 µM) | 4.8% | 3.71% | 17.5%
NC(=O)c1ccc(N(C(N)=O)c2c(F)cccc2F)nc1-c1ccc(F)cc1F + C[C@]1(O)C[C@@H](c2nc(-c3ccc4ccc(-c5ccccc5)nc4c3)c3c(N)nccn32)C1 [OSI906] (first compound 2 µM, partner dose 2 µM) | 95.4% | 77.6% | 78.5%
CN(NC(=O)CC(=O)NN(C)C(=S)c1ccccc1)C(=S)c1ccccc1 + c1cc(-c2cnn3cc(-c4ccc(OCCN5CCCCC5)cc4)cnc23)ccn1 [Dorsomorphin] (first compound 0.03 µM, partner dose 2 µM) | 45.5% | 7.69% | 91.3%
Cc1ccc(NC(=O)c2cccc(N(C)C)c2)cc1NC(=O)c1ccc(O)cc1 + C[C@@H]1CCN(C(=O)CC#N)C[C@@H]1N(C)c1ncnc2[nH]ccc12 [CP690550] (first compound 10 µM, partner dose 5 µM) | 92.6% | 79.2% | 114%
CCCCCCCCc1ccc(CCC(N)(CO)CO)cc1 [fingolimod] + C[C@@H]1CCN(C(=O)CC#N)C[C@@H]1N(C)c1ncnc2[nH]ccc12 [CP690550] (first compound 10 µM, partner dose 5 µM) | 2.06% | 2.49% | 30.4%
NC(=O)c1ccc(N(C(N)=O)c2c(F)cccc2F)nc1-c1ccc(F)cc1F + Nc1nc(F)nc2c1ncn2[C@@H]1O[C@H](CO)[C@@H](O)[C@@H]1O [fludarabine] (first compound 2 µM, partner dose 1 µM) | 92.4% | 87% | 41.8%
CC(C)(C)c1cnc(CSc2cnc(NC(=O)C3CCNCC3)s2)o1 + Cc1cc(N2CCOCC2)cc2[nH]c(-c3c(NC[C@@H](O)c4cccc(Cl)c4)cc[nH]c3=O)nc12 [BMS536924] (first compound 0.05 µM, partner dose 1 µM) | 87.8% | 73% | 110%
CCCCCCCCc1ccc(CCC(N)(CO)CO)cc1 [fingolimod] + CC(C)(C)c1cnc(CSc2cnc(NC(=O)C3CCNCC3)s2)o1 [SNS-032] (first compound 10 µM, partner dose 0.05 µM) | 3.64% | 2.89% | 32.8%
NC(=O)c1ccc(N(C(N)=O)c2c(F)cccc2F)nc1-c1ccc(F)cc1F + Cc1cc(Nc2cc(N3CCN(C)CC3)nc(/C=C/c3ccccc3)n2)n[nH]1 [ENMD2076] (first compound 2 µM, partner dose 0.2 µM) | 86.9% | 127% | 86.6%
CN(NC(=O)CC(=O)NN(C)C(=S)c1ccccc1)C(=S)c1ccccc1 + COc1cc2c(Oc3ccc4[nH]c(C)cc4c3F)ncnc2cc1OCCCN1CCCC1 [cediranib] (first compound 0.03 µM, partner dose 2 µM) | 64.6% | 11.9% | 131%
